Data published in PubChem BioAssay AID1745853 (National Center for Advancing Translational Sciences (NCATS), 2022).
Several values for one entry are separate records, joined by “and”; a condition that tells them apart may be missing. Equal entries are not always repeated. Some of the results follow. Shown are side measurements of this screen, not its main read-out; they come without a call.

Key:
Test in all cases: Primary Screen for Target Class Profiling of Small Molecule Inhibitors of Methyltransferases
[1] = molecular target: Guanidinoacetate N-methyltransferase (Homo sapiens) (UniProt Q14353); conditions: purified enzyme, MTase-Glo SAH luminescence; measured here: GAMT inhibition; at 40 µM; stronger effect = lower value
Outline: (§1)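 Each enzyme was assayed with SAM and its substrate. SAH formation detected by MTase-Glo luminescence; single-point 40 uM screen[…].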

[2] = molecular target: Nicotinamide N-methyltransferase (Homo sapiens) (UniProt P40261); conditions: purified enzyme, MTase-Glo SAH luminescence; measured here: NNMT inhibition; at 40 µM; stronger effect = lower value
Outline: as §1

[3] = molecular target: Phenylethanolamine N-methyltransferase (Homo sapiens) (UniProt P11086); conditions: purified enzyme, MTase-Glo SAH luminescence; measured here: PNMT inhibition; at 40 µM; stronger effect = lower value
Outline: as §1

[4] = molecular target: Glycine N-methyltransferase (Homo sapiens) (UniProt Q14749); conditions: purified enzyme, MTase-Glo SAH luminescence; measured here: GNMT inhibition; at 40 µM; stronger effect = lower value
Outline: as §1

[5] = molecular target: Histamine N-methyltransferase (Homo sapiens) (UniProt P50135); conditions: purified enzyme, MTase-Glo SAH luminescence; measured here: HNMT inhibition; at 40 µM; stronger effect = lower value
Outline: as §1
% is scaled to controls: 0 for no effect and ±100 for the full control effect.

| SMILES | activity change, negative = inhibition [1] | activity change, negative = inhibition [2] | activity change, negative = inhibition [3] | activity change, negative = inhibition [4] | activity change, negative = inhibition [5] |
| --- | --- | --- | --- | --- | --- |
| O=Nc1c2[nH]c3ccccc3nc-2c2ccccc12 | -4.37% | -30.2% | -27% |  |  |
| COC(=O)c1cc2n(n1)CC(C)(C(=O)NC1CCCCC1)N(c1ccc(C)c(C)c1)C2=O (stereo not drawn) | 0.524% | 6.82% | 3.91% | 2.68% | 8.97% |
| Cc1cn2nc(C(=O)N3CCC(C(=O)NCc4ccccn4)CC3)cc2c(=O)[nH]1 | -6.07% | -4.56% | -14.2% | -2.48% | -1.23% |
| O=C(Nc1ccccc1Cl)N1Cc2c(sc3c2CCCC3)-n2cccc2C1c1cccc(F)c1 (stereo not drawn) | 1.08% | -3.89% | 0.786% | -4.2% | 2.65% |
| COc1ccc(CN2Cc3[nH]cnc3C[C@H]2c2nc(Cc3ccccc3)no2)cc1 | -4.12% | -19.1% | -11.1% | -10% | -9.69% |
| Cc1ccc(NC(=O)N2Cc3c(sc4c3CCCC4)-n3cccc3C2c2ccc(F)cc2)cc1 (stereo not drawn) | 0% | -11% | 0.548% | -1.68% | -1.43% |
| Cc1cccc(N2CCN(C(=O)Cn3ccc4cc(S(=O)(=O)N5CCCCC5)ccc43)CC2C)c1 (stereo not drawn) | -1% | -12.9% | -5.29% | -7.1% | -8.42% |
| O=C(c1cccs1)N1CCCCCC1CN1CCCC1 (stereo not drawn) | -7.37% | -10.9% | -13.5% | -8.52% | -17.5% |
| COC(=O)c1cc2n(n1)CC(C)(C(=O)NC1CCCCC1)N(Cc1ccc(OC(C)C)cc1)C2=O (stereo not drawn) | 1.61% | 9.18% | 9.86% | 8.09% | 11.9% |
| O=C(NCCN1CCC(n2c(=O)[nH]c3ccccc32)CC1)c1ccc2ccccc2c1 | -1.65% | -26.9% | -16.6% | -29.9% | -0.76% |
| COc1ccc(CCNC(=O)CCCc2nnc3n4nc(-c5ccccc5)nc4c4ccccc4n23)cc1OC | 0% | 5.21% | -2.58% | -10.6% | 5.27% |
| Cc1cc(CN2C[C@@H](CO)[C@H](C(=O)N(C)C)C2)n(C)n1 | -10.3% | -6.62% | 1.85% | -4.87% | -3.63% |
| Cc1ccsc1C(=O)N1CCCC(CN2CCCC2)CC1 (stereo not drawn) | -10.7% | -11.4% | 0.177% | -12.4% | -28.8% |
| O=c1c(O)c(-c2ccc(O)c(O)c2)oc2cc(O)cc(O)c12 | -0.203% and -1.78% | -6.06% and 4.25% | -6.63% and -7.69% | -55.6% and 31.8% | -13.3% and -6.99% |
| CCOC(=O)C1=C(O)C(=O)N(Cc2ccccc2)C1 | 0.982% | -2.91% | 1.97% | -12.4% | -2.16% |
| COc1ccc(CNC(=O)c2cc3n(n2)CC(C)(C(=O)NCc2ccc(F)cc2)N(C)C3=O)cc1 (stereo not drawn) | 4.54% | 4.35% | 0.971% | 3.58% | -1.15% |
| CO[C@H]1O[C@@H]2O[C@]3(C)CC[C@@H]4[C@@H](C)CC[C@H]([C@H]1C)[C@]24OO3 | 5.98% | -3.46% | 7.42% | -3.52% | -0.847% |
